The values that follow come from the supplement of paper PMC9135407.

“And” between values parts separate entries of the source, which are not always exact repeats. Equal entries are not always repeated. Structures can show the parent of a compound that is named as a salt. Screen size: about 5,800 compounds; about 620 (11%) showed activity.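 How the source made its calls: active = score above a cut-off or among the top three wells of a plate; in these data no inactive exceeds 0.85.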 Only a part is listed here, and it is no random draw.

For the test, the system named is primary human hepatic stellate cells (donor 1). In words: scaled lipid accumulation score (0 = DMSO-like, 1 = nortriptyline-like); higher = stronger HSC inactivation (lipid re-accumulation), active = hit call of the paper. Conditions: 48 h. The protocol: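 Primary lipid accumulation screen in primary human hepatic stellate cell myofibroblasts (donor 1, passage 8) in 384-well plates. 100 nL of library compound was pin-transferred into 30 µL medium in duplicate, and cells were treated for 48 h. The 'Scaled' score combines distance from plate baseline, toxicity and reproducibility penalties, and is normalised to nortriptyline (positive) and DMSO (negative) controls on each plate. A hit is defined as scaled >0.85 or among the top 3 wells per plate.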

Where [1] appears, read: library stock concentration: 10 mM.
[2] abbreviates: library stock concentration: 3.33 mM.
The mark [3] stands for this setting: library stock concentration: 1 mM.
[4] abbreviates: library stock concentration: 8.6 mM.

As for `O=C1CN=C(c2cccc(Br)c2)c2oc3ccccc3c2N1`, the “scaled lipid accumulation score” value under setting [1] was inactive: 0.159.

For the molecule `O=C(O)CC[N+](=O)[O-]` [3-Nitropropionic acid], the “scaled lipid accumulation score” value under setting [1] is inactive: 0.009. Still for that read-out and setting: in the case of `CN1C[C@H](CNC(=O)OCc2ccccc2)C[C@@H]2c3cccc4c3c(cn4C)C[C@H]21` [Metergoline] it was inactive: 0.653. Regarding `CO/C1=C\C(C)=C\[C@@H](C)[C@@H](O)[C@@H](C)C/C(C)=C/C=C/[C@H](OC)[C@@H]([C@@H](C)[C@@H](O)[C@H](C)[C@@]2(O)C[C@@H](O)[C@H](C)[C@@H](C(C)C)O2)OC1=O` [Bafilomycin A1], the “scaled lipid accumulation score” value (library stock concentration: 800 uM) is active: 1.08. `O=[N+]([O-])c1ncc[nH]1` [Azomycin]: the “scaled lipid accumulation score” value was inactive: ≤ 0 under setting [2] and inactive: ≤ 0 under setting [1]. For `CC(=O)O[C@H]1CC[C@@]2(C)C(=CC[C@@H]3[C@@H]2CC[C@]2(C)C(=O)CC[C@@H]32)C1` [Prasterone acetate], under setting [1], the “scaled lipid accumulation score” value was inactive: 0.103. For the molecule `CC(=O)O[C@H]1CC[C@@]2(C)C(=CC[C@@H]3[C@@H]2CC[C@]2(C)C(=O)CC[C@@H]32)C1` [Dehydroisoandosterone 3-acetate], the “scaled lipid accumulation score” value is inactive: ≤ 0.

`O=C(NCNC(=O)NC1C(=O)NC(=O)N1CO)NC1C(=O)NC(=O)N1CO` (stereo not given) [Imidurea]: the “scaled lipid accumulation score” value is inactive: 0.015. As to `CCCN1CCC[C@@H]2Cc3n[nH]cc3C[C@H]21` [(?)-Quinpirole dihydrochloride], the “scaled lipid accumulation score” value under setting [1] was inactive: ≤ 0. As for `CCCN1CCC[C@@H]2Cc3n[nH]cc3C[C@H]21` [Quinpirole HCl (-)-], where the note is “library stock concentration: 9.1 mM”, the “scaled lipid accumulation score” value was inactive: ≤ -0.006. As for `CCCN1CCC[C@@H]2Cc3n[nH]cc3C[C@H]21` [(-)-Quinpirole hydrochloride], the “scaled lipid accumulation score” value was inactive: ≤ 0. Also, under setting [1], the “scaled lipid accumulation score” value is inactive: ≤ 0 and inactive: ≤ -0.006. `CCCCCCCCCCCCCCCCOC[C@@H](O)COP(=O)([O-])OCC[N+](C)(C)C`: the “scaled lipid accumulation score” value under setting [3] is inactive: ≤ 0 and inactive: ≤ -0.021.

On to `CCCCC/C=C\C/C=C\C/C=C\C/C=C\CCCC(N)=O` [Arachidonoyl amide], for which the “scaled lipid accumulation score” value under setting [3] was inactive: ≤ 0. The same measure, in the same setting: the same measure for `CCCCC/C=C\C/C=C\C/C=C\C/C=C\CCCC(N)=O` [Arachidonamide]: inactive: ≤ -0.021. For `CCCCCCCCCOc1ccc2[nH]cc(CCN)c2c1` [5-Nonyloxytryptamine], the “scaled lipid accumulation score” value (library stock concentration: 9.9 mM) was inactive: 0.5. Turning to `Cc1nccc2c1[nH]c1cc(O)ccc12` [Harmol hydrochloride], under setting [1], the “scaled lipid accumulation score” value was inactive: ≤ 0. For `CC(C)c1cccc(C(C)C)c1O` [Propofol], the “scaled lipid accumulation score” value is inactive: 0.085. Moreover, the “scaled lipid accumulation score” value under setting [1] is inactive: 0.323. On to `CC(C)c1cccc(C(C)C)c1O`, for which the “scaled lipid accumulation score” value under setting [1] is inactive: ≤ 0.

For the molecule `CC12NC(Cc3ccccc31)c1ccccc12` (single isomer, unassigned; (+)) [(+)-MK 801 maleate], the “scaled lipid accumulation score” value under setting [1] is inactive: 0.18. For `CCN1CCN(C(=O)Cc2ccc(Nc3ncc(F)c(Nc4ccc(C(=O)Nc5ccccc5Cl)cc4)n3)cc2)CC1` [Aurora A Inhibitor I], the “scaled lipid accumulation score” value under setting [1] was active: 1.24. Turning to `CCOC(=O)c1cncn1[C@H](C)c1ccccc1` [Etomidate], the “scaled lipid accumulation score” value was inactive: ≤ 0. Besides, under setting [2], the “scaled lipid accumulation score” value was inactive: ≤ 0. Also, the “scaled lipid accumulation score” value under setting [1] is inactive: ≤ 0 and inactive: ≤ -0.006.

Turning to `O=C(CCCN1CCC2(CC1)C(=O)NCN2c1ccccc1)c1ccc(F)cc1` [Spiperone], under “library stock concentration: 5.1 mM”, the “scaled lipid accumulation score” value was active: 0.939. Regarding `CN1CCc2cc3c(cc2C1C1OC(=O)c2c1ccc1c2OCO1)OCO3` (single isomer, unassigned; (+)) [(+)-Bicuculline], the “scaled lipid accumulation score” value runs as follows: under setting [2], inactive: ≤ 0; under setting [1], inactive: ≤ -0.001 and inactive: ≤ 0.

In the case of `CC(O)(CS(=O)(=O)c1ccc(F)cc1)C(=O)Nc1ccc(C#N)c(C(F)(F)F)c1` (stereo not given) [Bicalutamide], the “scaled lipid accumulation score” value under setting [2] was inactive: 0.039 and the “scaled lipid accumulation score” value under setting [1] was inactive: ≤ 0. As for `CC(O)(CS(=O)(=O)c1ccc(F)cc1)C(=O)Nc1ccc(C#N)c(C(F)(F)F)c1` (stereo not given) [Bicalutamide (CDX)], the “scaled lipid accumulation score” value under setting [1] is inactive: ≤ 0.

For the molecule `CC(O)(CS(=O)(=O)c1ccc(F)cc1)C(=O)Nc1ccc(C#N)c(C(F)(F)F)c1` (stereo not given), the “scaled lipid accumulation score” value under setting [1] was inactive: ≤ 0. For `CCCn1c(=O)c2[nH]c(C3CCCC3)nc2n(CCCOC(=O)c2ccc(S(=O)(=O)F)cc2)c1=O`, the “scaled lipid accumulation score” value under setting [1] is inactive: 0.433. With `CN[C@@H]1C[C@H]2O[C@@](C)([C@@H]1OC)n1c3ccccc3c3c4c(c5c6ccccc6n2c5c31)C(=O)NC4` [Staurosporine], under setting [3], the “scaled lipid accumulation score” value was active: 0.546. Regarding `CCCCCCC(C)(C)c1ccc([C@@H]2C[C@H](O)CC[C@H]2CCCO)c(O)c1`, under setting [3], the “scaled lipid accumulation score” value is inactive: 0.004. Consider `CCCCCC1OC1C/C=C\CCCCCCCC(=O)O` (stereo not given) [Leukotoxin B (12,13-EODE)], for which, under “library stock concentration: 100 uM”, the “scaled lipid accumulation score” value was inactive: ≤ -0.021.

Consider `CNC1CC(c2ccc(Cl)c(Cl)c2)c2ccccc21` (stereo not given) [Indatraline], for which the “scaled lipid accumulation score” value under setting [1] is inactive: 0.64. With `CCC1(c2ccc(N)cc2)CCC(=O)NC1=O` (racemic) [Dl-aminoglutethimide], under setting [4], the “scaled lipid accumulation score” value is inactive: 0.005. As for `CCC1(c2ccc(N)cc2)CCC(=O)NC1=O` (racemic) [(?)-p-Aminoglutethimide], the “scaled lipid accumulation score” value under setting [1] was inactive: 0.124. With `CCC1(c2ccc(N)cc2)CCC(=O)NC1=O` (racemic) [Aminoglutethimide], the “scaled lipid accumulation score” value is, setting by setting: under setting [2], inactive: ≤ 0; under setting [4], inactive: ≤ -0.001; under setting [1], inactive: ≤ 0. In the case of `CCC1(c2ccc(N)cc2)CCC(=O)NC1=O` (racemic) [Glutethimide, para-amino], the “scaled lipid accumulation score” value was inactive: 0.02.

As for `Cc1ncsc1CCCl` [Chlormethiazole hydrochloride], under setting [1], the “scaled lipid accumulation score” value is inactive: 0.01 and inactive: ≤ 0. For the molecule `O=[N+]([O-])O[C@H]1CO[C@H]2[C@@H]1OC[C@H]2O[N+](=O)[O-]` [Isosorbide dinitrate], the “scaled lipid accumulation score” value was inactive: ≤ 0. Further, under setting [1], the “scaled lipid accumulation score” value is inactive: ≤ 0. `CCN1C[C@]2(COC)CC[C@H](O)[C@]34C1[C@@](O)([C@@H](OC)[C@H]23)[C@@]1(O)C[C@H](OC)[C@H]2C[C@@H]4[C@@H]1[C@H]2OC` [Delsoline]: the “scaled lipid accumulation score” value was inactive: ≤ 0. Same read-out and setting: in the case of `CCN1C[C@]2(COC)CC[C@H](OC)[C@]34C5C[C@@H]6[C@@H](OC)C[C@@]7(OCO[C@@]7(C13)[C@@H](O)C24)C5[C@H]6OC` (stereo not given in full) [Delcorine] it was inactive: ≤ 0.

As for `CC(C)Oc1cccnc1N(C)C1CCN(Cc2ccccc2)CC1`, under setting [1], the “scaled lipid accumulation score” value was inactive: ≤ 0. Same read-out and setting: in the case of `Fc1ccc(C(OCCN2CCN(C/C=C/c3ccccc3)CC2)c2ccc(F)cc2)cc1` it was inactive: 0.507; in that of `COC(=O)N1CCN(C(=O)Cc2ccc(Cl)c(Cl)c2)C(CN2CCCC2)C1.O=C(O)/C=C/C(=O)O` (stereo not given), active: 0.902; in that of `COC[C@H]1OC(=O)c2coc3c2[C@@]1(C)C1=C(C3=O)C2CCC(=O)[C@@]2(C)C[C@H]1OC(C)=O` (stereo not given in full) [Wortmannin from Penicillium funiculosum], inactive: ≤ 0. `CCCCC1(C2CCCC2)Cc2cc(OCCCC(=O)O)c(Cl)c(Cl)c2C1=O` (stereo not given): the “scaled lipid accumulation score” value under setting [1] was inactive: 0.086. Take `Cl.Clc1ccc(N2CCN(Cc3c[nH]c4ncccc34)CC2)cc1` [L-745,870 hydrochloride]: the “scaled lipid accumulation score” value under setting [1] was active: 0.902. On to `CC1=CCCC2C1(C)CCC(C)C2(C)CC/C(C)=C/Cn1c[n+](C)c2c(N)ncnc21` (stereo not given) [Agelasine (stereochemistry of diterpene unknown)], for which the “scaled lipid accumulation score” value under setting [1] was inactive: 0.317.

In the case of `CC(C)C[C@H]1C(=O)N2CCC[C@H]2[C@]2(O)O[C@](NC(=O)[C@@H]3C=C4c5cccc6[nH]cc(c56)C[C@H]4N(C)C3)(C(C)C)C(=O)N12` [Ergocryptine-alpha], the “scaled lipid accumulation score” value is inactive: ≤ 0.

Regarding `Cl.Oc1ccc2c3c1O[C@H]1c4[nH]c5ccccc5c4C[C@@]4(O)C(C2)N(CC2CC2)CC[C@]314` [Naltrindole hydrochloride], the “scaled lipid accumulation score” value under setting [1] was active: 1.33. Take `Cl.Cl.Fc1ccc(C(OCCN2CCN(CCCc3ccccc3)CC2)c2ccc(F)cc2)cc1`: the “scaled lipid accumulation score” value under setting [1] was active: 0.942. For the molecule `O=C1C2CCN(CC2)C1(CO)CO`, the “scaled lipid accumulation score” value (library stock concentration: 27 mM) is active: 0.911. In the case of `NCC1(CC(=O)O)CCCCC1` [Gabapentin], the “scaled lipid accumulation score” value is inactive: ≤ 0. The “scaled lipid accumulation score” value under setting [3] was inactive: 0.002. Besides, the “scaled lipid accumulation score” value under setting [1] was inactive: 0.292 and inactive: ≤ -0.027. Consider `O=c1cccc2n1C[C@@H]1CNC[C@H]2C1` [(-)-Cytisine], for which the “scaled lipid accumulation score” value under setting [1] is inactive: 0.005. Regarding `O=c1cccc2n1C[C@@H]1CNC[C@H]2C1` [Cytisine (-)], the “scaled lipid accumulation score” value was inactive: ≤ 0. For the molecule `O=c1cccc2n1C[C@@H]1CNC[C@H]2C1` [Cytisine], the “scaled lipid accumulation score” value is inactive: ≤ 0 under setting [2]; inactive: ≤ 0 and inactive: ≤ -0.019 under setting [1]. For `CC[C@@H](C)C(=O)O[C@H]1[C@H](O)[C@H]2[C@@H](CN3C[C@@H](C)CC[C@H]3[C@@]2(C)O)[C@@H]2C[C@]34O[C@]5(O)[C@@H](OC(=O)[C@@](C)(O)CC)CC[C@@]3(C)[C@@H]5[C@@H](OC(C)=O)[C@@H](OC(C)=O)[C@H]4[C@@]21O` [Protoveratrine a], the “scaled lipid accumulation score” value under setting [1] is inactive: ≤ 0. As for `CC[C@@H](C)C(=O)O[C@H]1[C@H](O)[C@H]2[C@@H](CN3C[C@@H](C)CC[C@H]3[C@@]2(C)O)[C@@H]2C[C@]34O[C@]5(O)[C@@H](OC(=O)[C@@](C)(O)CC)CC[C@@]3(C)[C@@H]5[C@@H](OC(C)=O)[C@@H](OC(C)=O)[C@H]4[C@@]21O` [Protoveratrine A], the “scaled lipid accumulation score” value is inactive: ≤ 0. For the molecule `NC(CCP(=O)(O)O)C(=O)O` (stereo not given) [(?)-2-Amino-4-phosphonobutyric acid], the “scaled lipid accumulation score” value under setting [1] is inactive: ≤ 0.

With `COc1ccc2c(c1O)-c1cccc3c1[C@@H](C2)N(C)CC3` [R(-)-Apocodeine hydrochloride], the “scaled lipid accumulation score” value under setting [1] was inactive: 0.627.

Take `CCNC(=O)C1OC(n2cnc3c(N)ncnc32)C(O)C1O` (stereo not given) [5'-N-Ethylcarboxamidoadenosine (NECA)]: the “scaled lipid accumulation score” value (library stock concentration: 16.2 mM) is inactive: ≤ -0.021.

Regarding `C[N+]1(C)CCc2cc3c(cc2[C@H]1[C@@H]1OC(=O)c2c1ccc1c2OCO1)OCO3` [(-)-Bicuculline methochloride], the “scaled lipid accumulation score” value under setting [1] was inactive: ≤ 0. Consider `C[N+]1(C)CCc2cc3c(cc2[C@H]1[C@@H]1OC(=O)c2c1ccc1c2OCO1)OCO3` [(-)-Bicuculline methbromide, 1(S), 9(R)], for which the “scaled lipid accumulation score” value under setting [1] is inactive: 0.055.

`C[N+]1(C)CCc2cc3c(cc2[C@H]1[C@@H]1OC(=O)c2c1ccc1c2OCO1)OCO3` [(-)-Bicuculline methiodide]: the “scaled lipid accumulation score” value under setting [1] was inactive: 0.08.
